{"source": "PubChem BioAssay AID686979", "about": "(National Center for Advancing Translational Sciences (NCATS), 2013)", "note": "Hit rate of the full screen: of about 420,000 compounds, about 50,000 (12%) were called active. This list was built around the results that the source calls inconclusive (neither active nor inactive); the mix of calls is not that of the screen. The call rests on the fitted dose curve; in most records, active means well fitted inhibition curve with a large enough effect; inconclusive means small, poorly fitted or top-dose-only effect; inactive means flat fitted curve, though single readings scatter. No potency is given beside an inconclusive call; the fits are too rough. On the % scale 0 is the no-effect control and ±100 the full control effect; potency means the concentration at half of the fitted maximal effect; tags describe the fitted curve by direction and shape.", "data": [{"assay": "qHTS for Inhibitors of human tyrosyl-DNA phosphodiesterase 1 (TDP1): qHTS in cells in presence of CPT; further: nearly all actives have a fitted effect of over 55% in size", "details": "chicken DT40 Tdp1-/-;hTDP1 cells + 20 nM CPT, ATP luminescence, 48 h; activity change, negative = growth inhibition: at 46.2 µM (top of the series) unless noted", "in_short": "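Chicken DT40 Tdp1-/- cells stably complemented with human TDP1 were seeded at 400 cells/well in medium containing 20 nM camptothecin, exposed to pin-transferred compounds, and grown at 37 °C for at least 48 hr. Viability was read as ATP luminescence.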", "values": [{"smiles": "COc1ccc(C)cc1NC(=O)NCCn1nnc2cc(S(=O)(=O)N(C)C)ccc21", "Potency": "inconclusive [inhibitor, single point]"}, {"smiles": "Cc1nnc(NC(=O)CSc2nc3c([nH]c4ccccc43)c(=O)n2-c2cccc(Cl)c2)s1", "Potency": "inconclusive [inhibitor, single point]"}, {"smiles": "Cc1ccccc1N1C(=O)c2cccc([N+](=O)[O-])c2C1=O", "activity change, negative = growth inhibition": "inactive: -10.1%"}, {"smiles": "CCOC(=O)c1ccccc1NC(=O)c1sc2nc(-c3ccc(F)cc3)cn2c1C", "activity change, negative = growth inhibition": "inactive: 20%"}, {"smiles": "O=C(NCCc1nc2ccccc2n1Cc1ccc(Cl)cc1)c1ccccc1", "Potency": "inconclusive [inhibitor, single point]"}, {"smiles": "O=C(Nc1cccc(-c2nnc(-c3ccccc3)o2)c1)C1CCCCC1", "Potency": "inconclusive [inhibitor, single point]"}, {"smiles": "CCC(C)(C)NC(=O)C1CCCN1C(=O)NC1CCCCC1", "note": "(configuration not stated)", "activity change, negative = growth inhibition": "inactive: 3.05%"}, {"smiles": "O=C(NCc1ccccc1Cl)c1cnc2n(c1=O)CCS2", "activity change, negative = growth inhibition": "inactive: -4.61%"}, {"smiles": "O=C(CN1C(=O)c2ccccc2C1=O)N1CCN(C(=O)c2ccco2)CC1", "Potency": "inconclusive [inhibitor, single point]"}, {"smiles": "c1ccc(NC2=NCCN2CCC2CCCC2)cc1", "Potency": "inconclusive [inhibitor, single point]"}, {"smiles": "CCC1(C)Cc2ccccc2-c2nc(NN)[nH]c(=O)c21", "note": "(configuration not stated)", "activity change, negative = growth inhibition": "inactive: -1.49%"}, {"smiles": "CC(c1ccccc1)c1nnc(NC(=O)Nc2ccccc2F)s1", "note": "(configuration not stated)", "Potency": "inconclusive [inhibitor, single point]"}, {"smiles": "Nc1nc2nn(-c3ccccc3)nc2c(=O)[nH]1", "activity change, negative = growth inhibition": "inactive: -13.3%"}, {"smiles": "CCOC(=O)CSc1nc2c(sc(=S)n2CCc2ccccc2)c(=O)n1Cc1ccco1", "Potency": "active: 20.6 µM"}, {"smiles": "Cc1ccc([N+](=O)[O-])cc1-c1[nH]c(-c2ccc(O)c(O)c2)nc1-c1ccccc1", "Potency": "active: 16.4 µM"}, {"smiles": "CCOC(=O)c1cc2nc(OCC)nc(OCC)c2[nH]1", "activity change, negative = growth inhibition": "inactive: -11.1%"}, {"smiles": "COc1cc(/C=N/Nc2nc3ccccc3s2)cc([N+](=O)[O-])c1O", "Potency": "inconclusive [inhibitor, single point]"}, {"smiles": "Cc1noc(C)c1C(=O)N1CCC[C@@]2(CCN(C(c3ccccc3)c3ccccc3)C2)C1", "Potency": "inconclusive [inhibitor, single point]"}, {"smiles": "COC(=O)c1ccccc1NC(=O)N1CCN(S(=O)(=O)c2ccc(Cl)cc2)CC1", "Potency": "inconclusive [inhibitor, single point]"}, {"smiles": "O=C(/C=C/c1cn(-c2ccccc2)nc1-c1cccnc1)N1CCCC1", "Potency": "active: 8.2 µM"}, {"smiles": "Fc1ccc(Nc2ncnc3ccccc23)cc1", "Potency": "inconclusive [inhibitor, single point]"}, {"smiles": "CN1CCN(c2nc3c(c(=O)n(C)c(=O)n3C)n2Cc2cccc3ccccc23)CC1", "activity change, negative = growth inhibition": "inactive: -6.37%"}, {"smiles": "COc1ccc(C(=O)NCC(=O)N/N=C(C)\\C=C\\c2ccccc2)cc1OC", "activity change, negative = growth inhibition": "inactive: 11.2%"}, {"smiles": "CN(CC(=O)Nc1cccc(F)c1)C(=O)CCCc1cccs1", "activity change, negative = growth inhibition": "inactive: -0.145%"}, {"smiles": "COc1cccc(S(=O)(=O)N2CCN(c3ccccc3F)CC2)c1", "Potency": "inconclusive [inhibitor, single point]"}, {"smiles": "CCCN(C(=O)c1ccc2c(=O)n3c(nc2c1)CCCCC3)c1cccc(Cl)c1", "Potency": "inconclusive [inhibitor, single point]"}, {"smiles": "COc1ccc([N+](=O)[O-])cc1N(CC1CO1)S(=O)(=O)c1ccc(C)cc1", "note": "(configuration not stated)", "Potency": "inconclusive [inhibitor, single point]"}, {"smiles": "Cc1cc(Cl)ccc1OCC(=O)NCc1ccncc1", "Potency": "inconclusive [inhibitor, single point]"}, {"smiles": "COc1ccc(S(=O)(=O)N2CCCCC2)cc1NC(=O)CN1C(=O)NC(C)(C2CC2)C1=O", "note": "(configuration not stated)", "activity change, negative = growth inhibition": "inactive: -15.5%"}, {"smiles": "CCN1C(=NCCCOC(C)C)N[C@@H](c2ccccc2)[C@H](C(=O)OC)[C@H]1C", "activity change, negative = growth inhibition": "inconclusive: -31.6% [inhibitor]"}, {"smiles": "COc1ccccc1OCCNC(=O)C(c1ccccc1)c1ccccc1", "Potency": "inconclusive [inhibitor, single point]"}, {"smiles": "Clc1ccccc1-c1nc2ccccc2[nH]1", "activity change, negative = growth inhibition": "inactive: 6.93%"}, {"smiles": "O=C(C1CC1)N(Cc1ccco1)c1nc(-c2ccccc2)cs1", "Potency": "inconclusive [inhibitor, single point]"}, {"smiles": "COc1cccc(CN2CCC2(C)C(=O)NCc2cccc(C(F)(F)F)c2)c1OC", "note": "(configuration not stated)", "Potency": "active: 13 µM"}, {"smiles": "CCOc1cc(/C=N/Nc2nn3cnnc3c3ccccc23)ccc1O", "Potency": "inconclusive [inhibitor, single point]"}, {"smiles": "CC(C)CC(NC(=O)OC(C)(C)C)c1cn([C@@H](CCCCNC(=O)OC(C)(C)C)C(=O)N2CCN(C(=O)OC(C)(C)C)CC2)nn1", "note": "(some centres not stated)", "Potency": "active: 5.8 µM"}, {"smiles": "C=CCc1c(C)nc(C)nc1N/N=C/c1ccccc1O", "Potency": "active: 25.9 µM"}, {"smiles": "O=C(CCNS(=O)(=O)c1ccc2c(c1)CCN2C(=O)C1CC1)Nc1ccc(Cl)cc1", "Potency": "active: 10.3 µM"}, {"smiles": "Cc1ccc(OCc2nnc(SC3CCc4ccccc4C3=O)n2C)cc1", "note": "(configuration not stated)", "Potency": "inconclusive [inhibitor, partial curve]"}, {"smiles": "CCCCN(Cc1ccco1)C(=O)c1cc2c(=O)[nH]c3ccc(C)cc3c2s1", "Potency": "inconclusive [inhibitor, single point]"}, {"smiles": "COc1ccc(/C(C)=N\\O)cc1OC", "activity change, negative = growth inhibition": "inactive: 1.67%"}, {"smiles": "Cc1c(C(=O)NCCC2=CCCCC2)oc2ccc(S(=O)(=O)N3CCOCC3)cc12", "Potency": "inconclusive [inhibitor, single point]"}, {"smiles": "COc1ccc(-c2c(C#Cc3ccsc3)c3cc(-c4ccc5cc[nH]c5c4)ccc3n2C)cc1", "Potency": "inconclusive [inhibitor, single point]"}, {"smiles": "Cc1cccc(NC(=O)CN2C(=O)C(c3ccc(F)cc3)=NC23CCCCCC3)c1C", "Potency": "inconclusive [inhibitor, single point]"}, {"smiles": "CCN(CC)c1ccc(/C=N/Nc2cccc(C)c2)c(O)c1", "Potency": "inconclusive [inhibitor, single point]"}, {"smiles": "COc1cccc(OCC(=O)NNC(=O)Cc2cccs2)c1", "activity change, negative = growth inhibition": "inactive: 12.2%"}, {"smiles": "CN(CC1CCCN(CCc2cccc(C(F)(F)F)c2)C1)C(=O)c1cc2ccccc2o1", "note": "(configuration not stated)", "Potency": "inconclusive [inhibitor, single point]"}]}]}
